In all, about 46,000 compounds went through this assay and about 60 (0.1%) were called active. Roughly 3% stayed inconclusive and do not appear here. The call rests on the fitted dose curve; in most records, active means well fitted inhibition curve with a large enough effect; inconclusive means small, poorly fitted or top-dose-only effect; inactive means no such curve, though single readings can be large or run the other way. The list shows a part of the results.
assay: Primary qHTS assay for Inhibitors of ovarian cancer metastasis using an organotypic tumor microenvironment (TME) model.; further: nearly all actives have a fitted effect of over 65% in size;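 on activity change, negative = inhibition: plate controls were DMSO wells for no effect and tomatine positive control wells for full effect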; settings: SKOV3ip1-GFP adhesion/invasion on 3D omental model, fluorescence; series mostly up to 45.8 µM; activity change, negative = inhibition: at the top concentration
Procedure, shortened: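 A 3D layer of primary human omental fibroblasts, mesothelial cells, fibronectin and collagen I, grown 48 hr, received SKOV3ip1-GFP cells in serum-free medium plus compounds at 0.36-46 umol/L. After 2 hr RT and 16 hr 37 C, fixed adherent GFP cells were counted; normalized to DMSO and tomatine.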

outcome, inactive:
CCOc1ccc(CNC(=O)C2CCN(c3nn4c(=O)cc(C)nc4s3)CC2)cc1
CCOCCCNC(=O)c1cc2c(=O)[nH]c3ccccc3c2n1C
Cc1ccc(Cl)cc1NC(=O)C1CCN(c2nc3ccccc3n3cccc23)CC1
COc1ccc(-c2noc(CSc3nc(N)cc(=O)[nH]3)n2)cc1OC
COc1cc(C2C(C(=O)Nc3ccccc3)=C(C)Nc3nnnn32)cc(OC)c1OC (configuration not stated)
COCCn1c(=O)[nH]c2cc(C(=O)Nc3cccc(C(C)=O)c3)ccc2c1=O
CCOc1ccc(S(=O)(=O)Nc2cc(Cl)ccc2OC)c2cccnc12
O=c1oc2ccccc2cc1-c1cn2cc(Cc3ccc(Br)cc3)sc2n1

Activity change, negative = inhibition, inactive:
COc1cccc(-n2cc(C(=O)Nc3cc(C)c(Cl)cc3OC)c3ccccc3c2=O)c1 -7.38%
CCOc1ccc(CCNC(=O)C2CCC(CNS(=O)(=O)c3ccc(Cl)cc3)CC2)cc1OCC (configuration not stated) -24.6%
CCOc1ccc2nc(N3CCCC(C(=O)NCc4ccccc4OC)C3)sc2c1 (configuration not stated) -0.661%
CCCn1c2ccccc2c2cnn(CC(=O)NCCc3ccc(C)cc3)c(=O)c21 -30%
CCOC(=O)c1ccc(NC(=O)c2nc(SCc3ccccc3F)ncc2Cl)cc1 -2.92%
O=C(NC1CC(=O)N(c2ccc(Cl)cc2)C1)c1ccc(S(=O)(=O)N2CCOCC2)cc1 (configuration not stated) -13.7%
COc1ccc(-c2noc(CN(C(=O)c3cc(OC)c(OC)cc3OC)C(C)C)n2)cc1 -20.6%
CCCCOC(=O)c1ccc(Nc2nnc(-n3nc(C)cc3C)c3ccccc23)cc1 -7.31%
Cc1cc(C)c2oc(C(=O)Nc3ccc(S(=O)(=O)Nc4nccc(C)n4)cc3)cc(=O)c2c1 -2.22%
COc1ccc(Nc2oc(/C=C/c3ccc(OC)c(OC)c3)nc2C#N)cc1 -2.16%
Cc1ccc(CN2CCCn3nc(C(=O)NCC(C)c4ccccc4)cc3C2=O)cc1 (configuration not stated) 13.3%
CCc1nn(CC(=O)NCCCOC)c(=O)c2cc3ccccc3n12 -24.3%
Cc1ccc(/C=C/c2onc(C)c2S(=O)(=O)N2CCC(C(=O)Nc3cc(F)ccc3F)CC2)cc1 14.4%
Cc1nc(C(=O)NCC(=O)O)c(O)c2ccc(Oc3ccccc3)cc12 4.25%
O=c1c2sc3ccccc3c2n(Cc2cccc(C(F)(F)F)c2)c(=O)n1Cc1ccc(F)cc1 32.6%
Cc1cccc(C)c1Nc1c(-c2ccc(O)cc2)nc2sccn12 -5.33%
COc1ccc2oc(-c3cccc(NC(=O)c4sc5c([N+](=O)[O-])cccc5c4Cl)c3)nc2c1 -6.11%
CCCn1c(CCC(=O)Nc2ccccc2OC)nc2cccnc21 7.87%
CCOc1ccc(S(=O)(=O)NCCc2sc3nc(-c4ccc(C)cc4)nn3c2C)cc1 8.34%

Source: PubChem BioAssay AID1963576 (National Center for Advancing Translational Sciences (NCATS), 2024)
